# Results: PMC4336329 (PLoS ONE, 2015)
# Out of some 310,000 compounds screened, about 14,000 (4.5%) showed an effect of 50% or more. Effects have a minus sign here. This is one part of the list.
# Biological target: human ether-à-go-go-related gene (hERG) potassium channel (human, UniProt Q12809)
# Test: primary screen, population patch clamp on CHO cells stably expressing hERG
# 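Further: peak tail current of the secondary pulse compared with the same well before compound.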
# Chain of human ether-à-go-go-related gene (hERG) potassium channel (Q12809 whole entry, looked up): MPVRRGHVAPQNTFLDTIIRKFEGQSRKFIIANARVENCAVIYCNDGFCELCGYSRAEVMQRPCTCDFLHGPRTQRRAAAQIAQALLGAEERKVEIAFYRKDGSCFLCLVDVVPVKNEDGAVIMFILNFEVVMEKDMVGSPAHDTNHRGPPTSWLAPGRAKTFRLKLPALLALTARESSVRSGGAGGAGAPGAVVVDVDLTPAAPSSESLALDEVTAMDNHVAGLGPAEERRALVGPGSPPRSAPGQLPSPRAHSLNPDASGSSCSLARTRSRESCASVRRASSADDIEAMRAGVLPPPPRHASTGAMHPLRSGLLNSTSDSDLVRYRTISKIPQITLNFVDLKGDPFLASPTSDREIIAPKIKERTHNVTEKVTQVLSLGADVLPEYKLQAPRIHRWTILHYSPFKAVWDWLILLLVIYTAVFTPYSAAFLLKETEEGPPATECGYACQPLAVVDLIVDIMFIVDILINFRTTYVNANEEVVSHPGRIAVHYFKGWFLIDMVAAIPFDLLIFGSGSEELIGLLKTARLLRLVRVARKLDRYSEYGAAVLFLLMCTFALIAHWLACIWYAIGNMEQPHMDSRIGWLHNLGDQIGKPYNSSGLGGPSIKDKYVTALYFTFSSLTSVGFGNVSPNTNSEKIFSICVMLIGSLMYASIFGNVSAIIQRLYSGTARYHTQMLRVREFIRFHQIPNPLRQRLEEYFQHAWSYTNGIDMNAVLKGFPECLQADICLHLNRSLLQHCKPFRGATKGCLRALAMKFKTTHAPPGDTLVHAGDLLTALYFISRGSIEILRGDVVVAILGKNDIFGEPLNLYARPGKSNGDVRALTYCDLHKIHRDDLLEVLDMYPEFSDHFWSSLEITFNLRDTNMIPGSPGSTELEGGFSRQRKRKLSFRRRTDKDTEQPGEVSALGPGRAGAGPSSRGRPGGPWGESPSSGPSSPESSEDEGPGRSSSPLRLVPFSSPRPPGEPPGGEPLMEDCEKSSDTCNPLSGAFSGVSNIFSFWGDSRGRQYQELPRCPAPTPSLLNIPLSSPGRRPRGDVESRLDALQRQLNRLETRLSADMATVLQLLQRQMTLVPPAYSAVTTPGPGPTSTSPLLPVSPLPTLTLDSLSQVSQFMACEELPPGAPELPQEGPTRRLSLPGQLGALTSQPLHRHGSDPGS
row,SMILES,"hERG current change (%, negative = inhibition) at 10uM [%]"
1,CC(=O)NC(C)CCc1ccccc1 (stereo not shown),10.9
2,Cc1c(C)c(C)c(S(=O)(=O)N2CCNCC2)c(C)c1C.Cl,-11.2
3,Cc1c(C(=O)NCCC2=CCCCC2)sc2ncnc(N3CCCCC3C)c12 (stereo not shown),-5.06
4,NC(=O)c1ccc(N=Cc2c(O)ccc3ccccc23)cc1,12.9
5,Cn1c(CCC(=O)Nc2ccc(F)cc2)nc2cc(S(=O)(=O)N3CCOCC3)ccc21,-17.7
6,Cn1c(=O)n(CCOc2ccccc2Cl)c2ccccc21,-19.2
7,C=C(C)Cn1c(CCCNC(=O)CCC)nc2ccccc21,-4.07
8,Cc1cccc(C)c1OCC(=O)N1CCc2ccccc2C1,-1.91
9,O=C(Nc1ccc(Br)cc1)c1ccccc1Br,-0.663
10,CCc1ccc(NC(=O)c2ccc3nc(N)sc3c2)cc1,-9.03
11,COC(=O)c1ccc(NC(=O)C2CC(=O)N(c3ccc(C)cc3)C2)cc1 (stereo not shown),9.53
12,COc1ccc(S(=O)(=O)Nc2ccc(Cc3ccncc3)cc2)cc1OC,-19.8
13,CC(=O)c1sc(NC(=O)c2ccc3c(c2)OCO3)nc1C,3.04
14,CCn1nnc(NC(=O)c2ccccc2Br)n1,25.6
15,COc1ccc(C(=O)Nc2cc3c4c(c2)CC(=O)N4CCC3)c(OC)c1,-3.06
16,CCCCNc1nc2c(-c3ccccc3)nnn2c2ccccc12,13.7
17,Br.COc1ccccc1N1Cc2ccccc2C1,-13.2
18,CCC1CCCCN1S(=O)(=O)c1ccccc1 (stereo not shown),-13
19,Cc1ccc(NC(=O)C(C)Sc2nnc(-c3cccnc3)n2-c2ccccc2)cc1 (stereo not shown),-81.4
20,COc1ccc(Cn2c(-c3ccco3)nc3oc4ccccc4c(=O)c3c2=O)cc1,-0.648

row,SMILES,"hERG current change (%, negative = inhibition) at 10uM [%]"
1,CS(=O)(=O)N(Cc1ccccc1Cl)c1ccc(C(=O)NCc2cccnc2)cc1,-38.5
2,CC1=CC(=Nc2c(C)n(C)n(-c3ccccc3)c2=O)C=CC1=O,-22.5
3,Cc1cc(C)n2ncc(/C(N)=N/OC(=O)c3ccccc3F)c2n1,-0.298
4,CCCc1cc(=O)n2[nH]c(NCc3ccc(OC)cc3)nc2n1,29.5
5,Cc1ccccc1-c1ccc(=O)n(CC(=O)Nc2ccc(-n3cnnn3)cc2)n1,-10.5
6,CCc1ccccc1Nc1nc(-c2cccnc2)cs1,-3.32
7,COc1ccc(Cl)cc1C(Nc1cccnc1)c1ccc2cccnc2c1O (stereo not shown),7.97
8,CSc1nc(C)cc(OCCNS(=O)(=O)c2cc(C)ccc2C)n1,1.36
9,Cc1cccn2c(=O)c3cc(C#N)c(=N)n(CCCN4CCOCC4)c3nc12,-80
10,N#Cc1c(SCC(=O)O)nc(-c2ccccc2)c2c1CCCC2,10.6
11,O=C(N/N=C/c1cn(-c2ccccc2)nc1-c1cc2ccccc2o1)c1cccnc1,-7.63
12,CCN(c1ccc(C)cc1C)S(=O)(=O)c1nnc(NC(=O)c2ccco2)s1,3.88
13,CC(C)C(NC(=O)c1ccc(C(C)(C)C)cc1)C(=O)NCC1(N(C)C)CCCCC1 (stereo not shown),-4.01
14,Cc1cc(C(=O)NCCCc2ccccc2)no1,1.78
15,CCOC(=O)/C=C/C(=O)N1CCc2ccccc21,0.96
16,COc1cccc(C(=O)Nc2ccc(N3CCN(C(=O)c4ccco4)CC3)cc2)c1,3.15
17,COc1ccc(/C=C2\SC(=S)N(CCCC(=O)NNC(=O)c3ccccc3O)C2=O)cc1,34.6
18,CC(C)(C)SCCNC(=O)c1ccc(Cl)c([N+](=O)[O-])c1,-16.8
19,CCc1ccc(OCC(=O)NNC(=O)c2cc(S(=O)(=O)N(C)C)ccc2N2CCCC2)cc1,-23.4
20,CSc1ccc(S(=O)(=O)NCC(=O)OCC(=O)NCc2cccs2)cc1[N+](=O)[O-],-44.5

row,SMILES,"hERG current change (%, negative = inhibition) at 10uM [%]"
1,CCOc1ccc(CCNC(=O)C(C)n2nc(C)n3c(cc4occc43)c2=O)cc1OCC (stereo not shown),0.513
2,CC(=O)N1CCc2cc(S(=O)(=O)Nc3ccccc3N3CCN(C)CC3)ccc21,-6.97
3,Nc1nc(-c2ccccc2)cc(N2CCCCC2)n1,-46
4,c1ccc(Cc2noc(CN3CCCC(CN4CCOCC4)C3)n2)cc1 (stereo not shown),3.47
5,CCC(NC(=O)C1(C)CC1(Br)Br)c1ccc(C)cc1 (stereo not shown),-12.3
6,O=c1[nH]c(=S)n(C2CCCCC2)c(O)c1/C=N/N1CCOCC1,-29.8
7,O=C(C1CCOCC1)N1CCC(CO)(CCc2ccccc2)CC1,5.29
8,Cc1[nH]c2ccccc2c1/C=C(/C#N)C(=O)NC(C)C,13.2
9,O=C(OCC1COc2ccccc2O1)c1ccccc1F (stereo not shown),-11
10,Cc1nn(C)c(Cl)c1C(=O)NCC(=O)Nc1ccc(C(C)C)cc1,-5.26
11,CCCC(=O)Nc1cc(C)c(NC(=O)c2ccco2)cn1,18.3
12,CC(C)CC(=O)Nc1ccccc1N1CCN(C(=O)c2ccccc2)CC1,-17.7
13,CCOc1ccc(CCNC(=O)CS(=O)Cc2nc(-c3ccc(C)cc3)oc2C)cc1OCC (stereo not shown),-26.7
14,CCN(CC(=O)NCc1ccc(Cl)cc1)C(=O)Cc1ccc(OC)cc1,-75.7
15,NS(=O)(=O)c1ccc(CCNC(=O)CSc2cccs2)cc1,8.78
16,CC(Sc1nc2cc([N+](=O)[O-])ccc2n1-c1cccc(C(F)(F)F)c1)C(=O)NC(N)=O (stereo not shown),13.6
17,C=CCn1c(SCC(=O)NC2CCCC2)nnc1-c1ccncc1,16.2
18,C=CCOc1nc(N2CCCC2)nc(N2CCCC2)n1,-22.6
